The supplement of paper PMC4604168 (melanoma cell lines)
This is one part of the list. Most values come without repeats; read them as rough.

Columns and labels:
Experiment in all cases: cell count relative to DMSO control; melanoma cells; higher = more viable cells
Settings in all cases: library dose: standard library concentration; 72 h
[1] = system: G361
[2] = system: IPC-298
[3] = system: IST-MEL1
[4] = system: LB2518-MEL
[5] = system: LOXIMVI
[6] = system: MEL-HO
[7] = system: MZ2-MEL
[8] = system: MeWo
[9] = system: RPMI7951
[10] = system: RVH-421
[11] = system: SkMel28
[12] = system: SkMel2
[13] = system: SkMel30
[14] = system: SkMel5
[15] = system: UACC257
[16] = system: UACC62
[17] = system: WM115
[18] = system: WM1716
[19] = system: WM3526
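Also: cells treated in 1,536-well plates, then fixed and DAPI-stained, with nuclei counted from automated high-throughput microscope images.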

Structure (SMILES): C=CCNC1=C2C[C@@H](C)C[C@H](OC)[C@H](O)[C@@H](C)/C=C(\C)[C@H](OC(N)=O)[C@@H](OC)/C=C\C=C(/C)C(=O)NC(=CC1=O)C2=O [Tanespimycin] + C/C(O)=C(\C#N)C(=O)Nc1cc(Br)ccc1Br [LFM-A13] (first compound 0.01 µM, partner dose 10 µM)
- cell count [1]: 94.2%
- cell count [2]: 90%
- cell count [3]: 73.6%
- cell count [4]: 86.4%
- cell count [5]: 116%
- cell count [6]: 82.9%
- cell count [7]: 95.9%
- cell count [8]: 91.1%
- cell count [9]: 36.9%
- cell count [10]: 114%
- cell count [11]: 73.3%
- cell count [12]: 84.9%
- cell count [13]: 97.3%
- cell count [14]: 72.6%
- cell count [15]: 102%
- cell count [16]: 71.4%
- cell count [17]: 34.3%
- cell count [18]: 87.3%
- cell count [19]: 105%

Structure (SMILES): CC[C@]1(O)C[C@H]2CN(CCc3c([nH]c4ccccc34)[C@@](C(=O)OC)(c3cc4c(cc3OC)N(C=O)[C@H]3[C@@](O)(C(=O)OC)[C@H](OC(C)=O)[C@]5(CC)C=CCN6CC[C@]43[C@@H]65)C2)C1 [vincristine] + O=C(Oc1ccc([N+](=O)[O-])cc1)N1CCC(C(O)(c2ccc3c(c2)OCO3)c2ccc3c(c2)OCO3)CC1 [JZL184] (first compound 0.0005 µM, partner dose 5 µM)
- cell count [1]: 84.1%
- cell count [2]: 102%
- cell count [3]: 89.4%
- cell count [4]: 103%
- cell count [5]: 67.3%
- cell count [6]: 104%
- cell count [7]: 87.3%
- cell count [8]: 30.8%
- cell count [9]: 23.2%
- cell count [10]: 58.5%
- cell count [11]: 69.8%
- cell count [12]: 77.6%
- cell count [13]: 35.4%
- cell count [14]: 37.2%
- cell count [15]: 59.1%
- cell count [16]: 41.2%
- cell count [17]: 34.9%
- cell count [18]: 31.4%
- cell count [19]: 40.2%

Structure (SMILES): O=C(O)[C@@H]1[O][Sb](=[O])([O][Sb]2(=[O])[O][C@H]([C@H](O)CO)[C@H](O)[C@H](C(=O)O)[O]2)[O][C@H]([C@H](O)CO)[C@@H]1O (some centres not stated) [stibogluconate] + C/C(O)=C(\C#N)C(=O)Nc1cc(Br)ccc1Br [LFM-A13] (first compound 10 µM, partner dose 10 µM)
- cell count [1]: 143%
- cell count [2]: 132%
- cell count [3]: 102%
- cell count [4]: 148%
- cell count [5]: 96.4%
- cell count [6]: 85.9%
- cell count [7]: 96.9%
- cell count [8]: 100%
- cell count [9]: 94%
- cell count [10]: 128%
- cell count [11]: 90.3%
- cell count [12]: 117%
- cell count [13]: 112%
- cell count [14]: 112%
- cell count [15]: 105%
- cell count [16]: 89.2%
- cell count [17]: 82.6%
- cell count [18]: 125%
- cell count [19]: 98.4%

Structure (SMILES): N#CC[C@H](C1CCCC1)n1cc(-c2ncnc3[nH]ccc23)cn1 [ruxolitinib] + Cc1cc(SCc2sc(-c3ccc(C(F)(F)F)c(F)c3)nc2C)ccc1OCC(=O)O [GW0742] (first compound 5 µM, partner dose 10 µM)
- cell count [1]: 70.2%
- cell count [2]: 95%
- cell count [3]: 80.3%
- cell count [4]: 109%
- cell count [5]: 100%
- cell count [6]: 67.3%
- cell count [7]: 79.9%
- cell count [8]: 81.4%
- cell count [9]: 70.8%
- cell count [10]: 86%
- cell count [11]: 88.8%
- cell count [12]: 95.7%
- cell count [13]: 104%
- cell count [14]: 64%
- cell count [15]: 78%
- cell count [16]: 104%
- cell count [17]: 112%
- cell count [18]: 78.6%
- cell count [19]: 106%

Structure (SMILES): O=C(/C=C/c1cccnc1)NCCCCC1CCN(C(=O)c2ccccc2)CC1 + Cc1cc(SCc2sc(-c3ccc(C(F)(F)F)c(F)c3)nc2C)ccc1OCC(=O)O [GW0742] (first compound 0.05 µM, partner dose 10 µM)
- cell count [1]: 7.78%
- cell count [2]: 49.1%
- cell count [3]: 82.8%
- cell count [4]: 72.9%
- cell count [5]: 87.2%
- cell count [6]: 59.9%
- cell count [7]: 44.6%
- cell count [8]: 103%
- cell count [9]: 104%
- cell count [10]: 64.7%
- cell count [11]: 70.9%
- cell count [12]: 24.9%
- cell count [13]: 96.9%
- cell count [14]: 118%
- cell count [15]: 99.2%
- cell count [16]: 110%
- cell count [17]: 93.3%
- cell count [18]: 96.1%
- cell count [19]: 99.5%

Structure (SMILES): Cc1cn(-c2cc(NC(=O)c3ccc(C)c(Nc4nccc(-c5cccnc5)n4)c3)cc(C(F)(F)F)c2)cn1 [nilotinib] + Cc1cc(SCc2sc(-c3ccc(C(F)(F)F)c(F)c3)nc2C)ccc1OCC(=O)O [GW0742] (first compound 1 µM, partner dose 10 µM)
- cell count [1]: 76.8%
- cell count [2]: 94%
- cell count [3]: 82.6%
- cell count [4]: 83.8%
- cell count [5]: 108%
- cell count [6]: 79.1%
- cell count [7]: 98.7%
- cell count [8]: 79.5%
- cell count [9]: 92.7%
- cell count [10]: 87.7%
- cell count [11]: 99.7%
- cell count [12]: 78.4%
- cell count [13]: 108%
- cell count [14]: 90.8%
- cell count [15]: 109%
- cell count [16]: 84.2%
- cell count [17]: 93.2%
- cell count [18]: 95.9%
- cell count [19]: 88.7%

Structure (SMILES): CS(=O)(=O)c1ccc(C(=O)Nc2ccc(Cl)c(-c3ccccn3)c2)c(Cl)c1 [vismodegib] + C/C(O)=C(\C#N)C(=O)Nc1cc(Br)ccc1Br [LFM-A13] (first compound 5 µM, partner dose 10 µM)
- cell count [1]: 86.1%
- cell count [2]: 112%
- cell count [3]: 101%
- cell count [4]: 123%
- cell count [5]: 94.4%
- cell count [6]: 98.7%
- cell count [7]: 97.6%
- cell count [8]: 114%
- cell count [9]: 80.7%
- cell count [10]: 119%
- cell count [11]: 87.7%
- cell count [12]: 95.7%
- cell count [13]: 116%
- cell count [14]: 99.9%
- cell count [15]: 109%
- cell count [16]: 72.7%
- cell count [17]: 96.9%
- cell count [18]: 129%
- cell count [19]: 88.2%

Structure (SMILES): O=C(Nc1cc(C(F)(F)F)cc(C(F)(F)F)c1)c1cc(Cl)ccc1O + O=C(Oc1ccc([N+](=O)[O-])cc1)N1CCC(C(O)(c2ccc3c(c2)OCO3)c2ccc3c(c2)OCO3)CC1 [JZL184] (first compound 0.08 µM, partner dose 5 µM)
- cell count [1]: 93.1%
- cell count [2]: 99.5%
- cell count [3]: 97.5%
- cell count [4]: 123%
- cell count [5]: 107%
- cell count [6]: 101%
- cell count [7]: 94.4%
- cell count [8]: 83.2%
- cell count [9]: 92.2%
- cell count [10]: 105%
- cell count [11]: 82.4%
- cell count [12]: 83.9%
- cell count [13]: 88.4%
- cell count [14]: 76.5%
- cell count [15]: 83.9%
- cell count [16]: 65.4%
- cell count [17]: 93.1%
- cell count [18]: 86.4%
- cell count [19]: 80.6%
